Literature values in PMC11006913.
Positions count from the first letter of the chain named. The list shows a part of the results.

Experiments:
Details in all cases: PBM; conditions not shown; double strand, one strand shown; scale: upbm affinity estimate (log intensity, higher = more binding, comparable within an allelic series)
ARX (Homo sapiens) = ARX (Homo sapiens) (UniProt Q96QS3)
ARX L343Q (Homo sapiens) = ARX L343Q (Homo sapiens) (UniProt Q96QS3)
ARX P353L (Homo sapiens) = ARX P353L (Homo sapiens) (UniProt Q96QS3)
ARX P353R (Homo sapiens) = ARX P353R (Homo sapiens) (UniProt Q96QS3)
ARX R332H (Homo sapiens) = ARX R332H (Homo sapiens) (UniProt Q96QS3)
ARX T333N (Homo sapiens) = ARX T333N (Homo sapiens) (UniProt Q96QS3)
[1] = target: T1, HESX1 E149K (Homo sapiens) (UniProt Q9UBX0)
T1 sequence: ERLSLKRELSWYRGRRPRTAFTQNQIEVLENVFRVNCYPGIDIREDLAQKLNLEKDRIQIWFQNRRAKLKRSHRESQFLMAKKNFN

[2] = target: T2, HESX1 N125S (Homo sapiens) (UniProt Q9UBX0)
T2 sequence: T1 sequence with N31S, K55E

[3] = target: T3, HESX1 R160C (Homo sapiens) (UniProt Q9UBX0)
T3 sequence: T1 sequence with K55E, R66C

ISX (Homo sapiens) = ISX (Homo sapiens) (UniProt Q2M1V0)
ISX R83Q (Homo sapiens) = ISX R83Q (Homo sapiens) (UniProt Q2M1V0)
[4] = target: PROP1 R112Q (Homo sapiens) (UniProt O75360)
[5] = target: PROP1 R99Q (Homo sapiens) (UniProt O75360)
[6] = target: HOXD13 I297V (Homo sapiens) (UniProt P35453)
[7] = target: HOXD13 I322L (Homo sapiens) (UniProt P35453)
[8] = target: HOXD13 N298S (Homo sapiens) (UniProt P35453)
[9] = target: HOXD13 Q325K (Homo sapiens) (UniProt P35453)
[10] = target: HOXD13 Q325R (Homo sapiens) (UniProt P35453)
[11] = target: HOXD13 R306W (Homo sapiens) (UniProt P35453)
[12] = target: HOXD13 S316C (Homo sapiens) (UniProt P35453)

Sequence | binding signal (ARX (Homo sapiens)) | binding signal (ARX L343Q (Homo sapiens)) | binding signal (ARX P353L (Homo sapiens)) | binding signal (ARX P353R (Homo sapiens)) | binding signal (ARX R332H (Homo sapiens)) | binding signal (ARX T333N (Homo sapiens)) | binding signal [1] | binding signal [2] | binding signal [3] | binding signal (ISX (Homo sapiens)) | binding signal (ISX R83Q (Homo sapiens)) | binding signal [4] | binding signal [5] | binding signal [6] | binding signal [7] | binding signal [8] | binding signal [9] | binding signal [10] | binding signal [11] | binding signal [12]
TAATTACA [8-mer TAATTACA] | 13 | 11 | 12.5 | 10.9 | 11.1 | 12.1 | 11.7 | 12.6 | 10.5 | 15.2 | 13.9 | 12.8 | 12.3 |  |  |  |  |  |  | 
CGCCGGAG [8-mer CGCCGGAG] | 10.3 | 10.3 | 10.3 | 10.2 | 10.2 | 10.4 |  |  |  |  |  |  |  |  |  |  |  |  |  | 
ACCAATTA [8-mer ACCAATTA] | 13.1 | 11.1 | 12.9 | 10.9 | 11.3 | 12.4 | 12.2 | 13.7 | 10.5 | 15.5 | 15 | 13 | 12.7 |  |  |  |  |  |  | 
GCTTTGCC [8-mer GCTTTGCC] | 10.4 | 10.3 | 10.4 | 10.3 | 10.2 | 10.4 |  |  |  |  |  |  |  |  |  |  |  |  |  | 
CCAATTAA [8-mer CCAATTAA] | 13.2 | 11 | 12.8 | 10.8 | 11.3 | 12.4 | 12 | 13.3 | 10.4 | 15.5 | 15.2 | 13 | 12.6 | 12.5 | 11.4 | 12.7 | 10.9 | 11.5 | 11.6 | 12.4
AATTAATC [8-mer AATTAATC] | 12.8 | 10.9 | 12.4 | 10.8 | 11.1 | 12.1 | 11.5 | 11.5 | 10.4 | 14.9 | 13.8 | 12.8 | 12.1 |  |  |  |  |  |  | 
ATTAATTA [8-mer ATTAATTA] | 13.3 | 11 | 12.9 | 10.9 | 11.3 | 12.6 | 12.1 | 13.8 | 10.5 | 15.6 | 15.3 | 13.1 | 12.5 | 12.4 | 11.5 | 12.6 | 11.5 | 11.9 | 11.8 | 12.3
CAATTATG [8-mer CAATTATG] | 12.8 | 11 | 12.5 | 10.9 | 11.1 | 12 | 11.8 | 12.1 | 10.5 | 15.1 | 13.8 | 12.8 | 12.4 | 11.7 | 10.9 | 11.8 | 10.8 | 11.2 | 10.9 | 11.4
TAAATTAA [8-mer TAAATTAA] | 12.7 | 10.7 | 12.1 | 10.6 | 10.8 | 11.9 | 11.1 | 11.3 | 10.2 | 14.8 | 13.4 | 12.6 | 11.9 |  |  |  |  |  |  | 
GATAATTA [8-mer GATAATTA] | 13.2 | 11 | 12.7 | 10.9 | 11.2 | 12.3 | 12 | 13.2 | 10.4 | 15.5 | 14.5 | 12.9 | 12.5 |  |  |  |  |  |  | 
